Target: T1, mouse TIGIT protein (mouse, UniProt P86176 29-148, limits assumed)
T1 construct: Soluble analyte in the BIAcore kinetics of 1.4; also called mTIGIT
T1 sequence (looked up): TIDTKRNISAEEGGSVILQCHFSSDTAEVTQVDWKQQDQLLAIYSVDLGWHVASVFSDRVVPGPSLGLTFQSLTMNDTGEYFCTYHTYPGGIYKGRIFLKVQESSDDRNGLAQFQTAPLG
Experiment: SPR (BIAcore), antibody captured on Protein A chip
Procedure: A Protein A chip was adopted in this experiment, and the time required for the chip to capture the diluted antibodies was measured by manual run so that the saturated antigen binding Rmax was 50 RU. The human, cynomolgus monkey, and mouse TIGIT and PVRIG proteins were diluted in gradient to 20, 10, 5, 2.5, and 1.25 nM. The affinity of the antibodies for the antigens was determined using multi-cycle kinetics. In each cycle, after the antibodies were injected, gradient concentrations of the human, cynomolgus monkey, and mouse TIGIT and PVRIG proteins were injected to ensure that the antigens and the antibodies were bound and dissociated. After each cycle, the Protein A chip was regenerated using Glycine pH 1.5 (to remove proteins on the chip). BIAcore T200 analysis software was used to fit the affinity KD of the antibodies for the antigens.

B1: LC-BsAb-002 (bispecific antibody)
heavy: EVQLVESGGGLVQPGGSLRLSCAASGFTFSYYDMSWVRQAPGKGLEWVSTINSDGGRTSYVDSVKGRFTISRDNSKNTLYLQMNSLRAEDTAVYYCVEGDPHNFGLESLSLRDFGSWGQGTMVTVSSGGGGSGGGGSGGGGSGGGGSEVQLQESGPGLVKPSETLSLTCAVSGYSITSDSWNWIRQPPGKKLEYIGYISYSGNTYYNPSLKSRVTISRDTSKNQFSLKLSSVTAADTAVYYCARLDFSNYGGAVDYWGQGTTVTVSS[human IgG1 constant region not written out]
light: DIVMTQSPDSLAVSLGERATINCKASQNVRTAVAWYQQKPGQSPKLMIYSASYRYTGVPDRFSGSGSGTDFTLTISSLQAEDVAVYYCQQYYTTPWTFGGGTKVEIKRTVAAPSVFIFPPSDEQLKSGTASVVCLLNNFYPREAKVQWKVDNALQSGNSQESVTEQDSKDSTYSLSSTLTLSKADYEKHKVYACEVTHQGLSSPVTKSFNRGEC
notes: Anti-PVRIG VHH joined to the N-terminus of the heavy chains of the anti-TIGIT antibody; also called PVRIG/TIGIT bispecific antibody; humanized anti-PVRIG×TIGIT bispecific antibody
binding result: no binding (tested: 20 nM (highest concentration tested))

Reference: US20260041765A1 (SHANDONG SIMCERE BIOPHARMACEUTICAL, published 2026)
